Measured values as given in ChEMBL document CHEMBL1201862, “PubChem BioAssay data set” (2004).
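The compound was tested at five concentrations on cells cultured in 96-well plates, with a 48-hour exposure period. Abbreviation: GI50, concentration required for 50% inhibition of growth.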 The source made the active and inactive calls. Rule as the data show it: active = GI50 up to about 1.1 µM and inactive = higher.

Test system: NCI-H322M
Experiment: NCI-60 cell line screen, 48 h

SMILES | GI50
COc1c(C(CC(C)C)OC(C)=O)ccc2c1C(=O)OCc1cc(C)cc(O)c1O2 (stereo not drawn) | inactive: 16.9 µM
NCC1CCCCC1.O=C(O)NCC1CCCCC1 | inactive: 33.2 µM
OCCCNc1[nH]cnc2nncc1-2 | inactive: > 100 µM
O=C(O)CCCc1ccc2ccccc2c1 | inactive: > 100 µM
O=C(OCc1ccccc1CN1CCOCC1)c1ccc(Br)cc1 | inactive: > 100 µM
C=C(C)C1CC2=C(C(=O)OC)C=C(O2)C(C(=C)C)[C@@H]2OC(=O)/C(=C\C1O)[C@H]2N(C)C (stereo partly drawn) | inactive: 28.9 µM
O=C(Nc1cccc(Cc2cccc(NC(=O)c3ccccc3)c2)c1)c1ccccc1 | inactive: 81.8 µM
S=c1cc(S)c2c(=S)sc3nc4ccccn4c(=S)c3c2s1 | inactive: > 100 µM
COc1ccc(N/N=C(\CCN(C)C)c2ccccc2)cc1 | inactive: 11.4 µM
CS(=O)(=O)c1cc(=O)c2ccccc2s1 | inactive: 16.9 µM
O=C(Cc1ccc(F)cc1)NC1=C(Cl)C(=O)c2ccccc2C1=O | inactive: 7.82 µM
COc1nc2ccc(Cl)c(C(O)c3ccccc3)c2nc1OC (stereo not drawn) | inactive: 50.7 µM
COc1ccc(N(C)S(=O)(=O)c2ccccc2)cc1 | inactive: > 100 µM
OCC(S)CS.[Bi] (stereo not drawn) | inactive: 16.3 µM
C[N+]1=C(c2cccnc2/C=N/O)OCC1(C)C | inactive: > 100 µM
c1csc(-c2cscc2-c2cccs2)c1 | inactive: 54.3 µM
CN1CCC23c4c5ccc(Oc6nnnn6-c6ccccc6)c4OC2c2[nH]c4ccccc4c2CC3(O)C1C5 (stereo not drawn) | inactive: 7.05 µM
CCC12CCCN(Cc3ccccc3)C1c1c(n(C)c3ccccc13)C(C(=O)OC)C2 (stereo not drawn) | inactive: 164 µM
Cc1c(C(=O)NCCO)[n+]([O-])c2cc(Cl)ccc2[n+]1[O-] | inactive: > 100 µM
Cc1ccc([S+]([O-])c2ccccc2[N+](=O)[O-])cc1 (stereo not drawn) | inactive: 51.6 µM
C=CCC(NCc1ccccc1)[C@H](OCc1ccccc1)[C@@H]1COC(C)(C)O1 (stereo partly drawn) | inactive: 66.1 µM
CSc1snc2sc3c(Cl)nnnc3c12 | inactive: 16.3 µM
Cc1n(CC(=O)c2ccc([N+](=O)[O-])cc2)c2c([n+]1CC(C)C)C(=O)c1ccccc1C2=O | active: < 0.01 µM

SMILES | GI50
O=C1c2cccnc2C(=O)c2c1nc1ccccc1c2-c1cncc(-c2c3c(nc4ccccc24)C(=O)c2cccnc2C3=O)c1 | active: 0.184 µM
Cc1cc(N(CCC#N)CCC#N)ccc1C(/N=N/c1ccccc1)=N\NC(=O)c1cc(Cl)ccc1O | inactive: 30.5 µM
Cn1ccnc1Sc1ccc(/C=N/c2ccc3nc(SCC(=O)NC4CCCCC4)sc3c2)cc1[N+](=O)[O-] | inactive: 15.6 µM
S=C(Nc1ccc2c(c1)oc1ccccc12)c1cccnc1 | inactive: > 100 µM
Fc1ccc(NCn2nc(COc3ccccc3Cl)n(/N=C/c3ccc(-c4ccc(Cl)cc4Cl)o3)c2=S)cc1Cl | inactive: > 100 µM
Cc1[nH]c2ncn(N)c(=N)c2c1Cc1ccccc1 | inactive: > 100 µM
O=C1N=C2SC(=S)N=C(S)N2NC12c1ccccc1-c1ccccc12 | inactive: > 10 µM
O=C(/C=C/c1ccccc1)/C=N/N1C(=S)N(c2ccccc2)C(=N\c2ccccc2)/C1=N/c1ccccc1 | inactive: > 100 µM
COc1ccc(N/N=C2\C3=C(CCC(C)(C)O3)C(=O)c3ccccc32)cc1 | inactive: 26.5 µM
O=C1COc2cc(NC(=S)Nc3ccccc3)ccc2N1 | inactive: > 100 µM
Clc1cc(OCC23CC4CC(CC(C4)C2)C3)nc(OCC23CC4CC(CC(C4)C2)C3)n1 | inactive: > 100 µM
CCCCCCCCCCCCCCCC(=O)OCC(COP(=O)(O)OCCNC(=O)CCSSc1ccccn1)OC(=O)CCCCCCCCCCCCCCC (stereo not drawn) | inactive: > 100 µM
CC(=O)Nc1ccc(-c2nnc(SCC(=O)Nc3ccc([N+](=O)[O-])cc3)o2)cc1 | inactive: 22.1 µM
O=C(COC(=O)c1cccc2c(=O)c3ccccc3[nH]c12)Nc1ccccc1 | inactive: > 100 µM
O=[N+]([O-])C(C(Cl)=C(Cl)Cl)=C(N(Cc1ccccc1)Cc1ccccc1)N(Cc1ccccc1)Cc1ccccc1 | inactive: > 100 µM
COc1ccc2c(c1)[nH]c1c3ccc(OC)cc3oc(=O)c21 | inactive: > 100 µM
O=C1Nc2ccc(Cl)cc2C(=O)N2CCC[C@@H]12 | inactive: > 100 µM
Cc1nc(N)sc1C(=O)Nc1nc[nH]n1 | inactive: > 100 µM
C#C[C@]1(O)CCCC2=CC(=O)CC[C@@]21C | inactive: > 100 µM
CN1CCCC(C(=O)OCC(=O)C2(O)CCC3C4CCC5=CC(=O)CCC5(C)C4C(O)CC32C)C1 (stereo not drawn) | inactive: 19.5 µM
N#CC(C(=O)O)C(c1c(Cl)cccc1Cl)C(C#N)C(=O)O (stereo not drawn) | inactive: > 100 µM
CCN(C(=O)N[C@@H](CC(C)C)C(=O)NCC(=O)OC)c1ccccc1 | inactive: > 100 µM
CCOc1cc[n+]([C-](C#N)C#N)cc1 | inactive: > 100 µM

SMILES | GI50
CCCCCCCCCCCCCCCCCc1nc(Cl)nc(Cl)c1Cl | inactive: > 100 µM
O=C(Cn1c(=O)oc2ccc(C(=O)c3cccc(Cl)c3)cc21)c1ccccc1 | inactive: > 100 µM
CCOC(=O)/C(=C\NC(=S)Nc1ccc(Cl)c(Cl)c1)C(=O)c1ccccc1 | inactive: 69.3 µM
Nc1ccc(C(=O)/C=C/c2ccccc2O)cc1 | inactive: > 100 µM
NNC(=O)c1ccccc1NC(=O)/C(=C/c1ccccc1O)NC(=O)c1ccccc1 | inactive: > 100 µM
Cc1cn(CCCC2=NCCCN2)c(=O)[nH]c1=O | inactive: > 100 µM
CN/N=C(/Cc1occc(=O)c1O)C(=O)Nc1ccccc1C | inactive: > 100 µM
COC(=O)/C=C/c1ccc2c(c1)[C@H](C(=O)OC)[C@@H](c1ccc(O)cc1)O2 | inactive: 54.6 µM
CC(=O)O[C@@H]1O[Si](C(C)(C)C)(C(C)(C)C)[C@H](C)[C@H]1C | inactive: > 10 µM
Cc1ccc2c(c1)Sc1ccc(/N=N/N(C)C)cc1N2C | inactive: 58.2 µM
CCCC(=O)CC(C)C(=O)C(=O)NC12CC3CC(CC(C3)C1)C2 (stereo not drawn) | inactive: > 100 µM
CN(C)CC1CCC(=C2CCCC2)C1=O (stereo not drawn) | inactive: 17.8 µM
COc1cc2c3c(n(Cc4ccccc4)c(=O)c2cc1OC)-c1ccccc1C3=O | inactive: > 100 µM
CC(C)N(C(=O)c1ccc(NCc2cc(O)ccc2O)cc1)C(C)C | inactive: 22.8 µM
O=C1c2ccccc2-c2nc(-c3cccs3)cc3c2c1nc1ccccc13 | inactive: 22.8 µM
CSc1nc(NC2OC(COC(C)=O)C(OC(C)=O)C(OC(C)=O)C2OC(C)=O)c(/N=C\C=N/c2c(NC3OC(COC(C)=O)C(OC(C)=O)C(OC(C)=O)C3OC(C)=O)nc(SC)n(C)c2=O)c(=O)n1C (stereo not drawn) | inactive: > 100 µM
COC1=C(OC)C(=O)c2cc(C)c(=O)c(C)cc2C1=O | inactive: 18.2 µM
O=S(=O)(O)SC/C=C\CSS(=O)(=O)O | inactive: > 100 µM
O=C(OC12CC3CC(CC(C3)C1)C2)c1ccc(NCc2cc(O)ccc2O)cc1 | inactive: 7.19 µM
NS(=O)(=O)c1ccc(/N=N/c2cccnc2O)cc1 | inactive: > 100 µM
Cc1cc(C)c2c(O)cc(-c3cccc(Cl)c3)nc2n1 | active: 0.366 µM
COc1ccc(-c2cc(=O)c3c(OC)c(OC)c(OC)c(OC)c3o2)c(OC)c1 | inactive: 30.5 µM
